Reference: the RNAGym collection of RNA variant scans (doi:10.7554/elife.90254)
Read counts are not given, so values of variants with three or more changes are uncertain.

B1: LINE1-mini (parent)
chain: GGCAGAGCUCAACACAGCGUGGCAAAGUGGCUGUGGCUAGACUGCC

Variants of: B1
Assay: self-cleavage, relative activity (ratio to wild type); higher = more cleavage; in vitro, sequencing; the parent is a self-cleaving ribozyme

| Variant | self-cleavage |
| --- | --- |
| G5C C8G A16G | 0.08 |
| G5U G19C U20A A39C | 0.02 |
| G7U A24C G40U | 0.15 |
| A4G A16U G27U | 0.4 |
| A6C A14G A16G U20C A39U G40A | 0 |
| C10U G27U C31G | 0.13 |
| C3U G29A G36C | 0.31 |
| C3U U9C C18A G35A C37U G44A | 0.01 |
| C3U G21C C23A U28G | 0.09 |
| G2A C18A C42A | 0.04 |
| C31A G40C G44C | 0.02 |
| G19U U28A G35A G36C C45A | 0.62 |
| G21U G22U U38C | 1.1 |
| A16U G22C C46G | 0.07 |
| C3G G22U A41C | 0.24 |
| G5C C8A G44U | 0.22 |
| G5C C23A C37G | 0.02 |
| G19A U34A G44C | 0.06 |
| G5A C13U U28C U38A | 0.01 |
| G7U A24U G27C G40A | 0.12 |
| A6C G17A G40C C45U | 0.06 |

| Variant | self-cleavage |
| --- | --- |
| C10U C18G C23U G29C C31U | 0.04 |
| G2C C31U G40C | 0.23 |
| A12C G35C A41G | 0.02 |
| A4G C8G C15U | 0.04 |
| G17A A24G U32G G33A | 0.03 |
| C3U U20G C31U A41C | 0.07 |
| G5U C42A C45G | 0.07 |
| A4U G17A G33C A41U | 0.04 |
| C8U C18G A24C A39G C42G | 0.06 |
| A12G U28A C37A | 0.07 |
| G5U A6U C13A | 0.14 |
| G7C G29U U32C | 0.04 |
| G5U A14G C15G G22A | 0.04 |
| A4U A6U G7U G33A | 0.24 |
| A11U A12U C31A | 0.01 |
| A12U U38G C46G | 0 |
| C3G C10U C46G | 0.16 |
| C3U G5A U9G A12G G35U A41U | 0.01 |
| C13G G27A G30U | 0.01 |
| A12G C18A G30A | 0.06 |
| A11U A24G U34G | 0.01 |

| Variant | self-cleavage |
| --- | --- |
| C8U G19C G30U G36U | 0.09 |
| C8A C13G C15A G19U A25G G33A | 0.29 |
| C8A G19C A25U G29U C46A | 0.29 |
| A4U G7A A12G G17C A24C A39C | 0.01 |
| A6U C13U C23U | 0.09 |
| A12G C15A C45A | 0.03 |
| A4G C13G A14C C42A C46A | 0.06 |
| C13A G33C U38A A41G | 0.01 |
| C3A G22U A26G U38C | 0.44 |
| G21C G35C C46A | 0.18 |
| A6U G21U G30C C42U C46A | 0.37 |
| G17U U20A G27U C45G | 0.08 |
| G2U A6C U20G U28C A39C | 0.01 |
| C8G U32A G40A | 0.02 |
| U9A A16U C42G C46G | 0.03 |
| A11U C15U G30U G36U C42A U43C C45A | 0.01 |
| A12U C18G G21A G30A | 1.21 |
| G1A G7U G29U | 0.11 |
| A14U A25U U28A | 0.14 |
| G2C A4G G5U C10U G21U | 0.04 |
| C3U A4G G29U U43C C46U | 0.3 |

| Variant | self-cleavage |
| --- | --- |
| G1C G30U U32A U38C C42U U43C | 0.01 |
| U32A G36U A41G C42U | 0.1 |
| A12G A25G G40A C46U | 0.03 |
| G19U G29U C45A | 0.49 |
| C37U A41U U43C G44U | 0.07 |
| A4G A11G C23A | 0.02 |
| C8G C37G C45G | 0.03 |
| G7A U9A A39C | 0.17 |
| G2C G17A G21U A24U | 0.01 |
| A25U U28G C46A | 0.27 |
| C10G C13A A26U G27U U43G | 0 |
| C3G C15A G30U G33A C37G | 0.18 |
| A12G G21A C23G C31G | 0.01 |
| C8A U20A G22U G27U | 0.21 |
| G2C A6C C8U C10A | 0.12 |
| A4U G27U C42A | 0.03 |
| A11U A12U U43A | 0.05 |
| C8G C13G C18A | 0.03 |
| G1A A11C C18G G21C C31U G33A C42U | 0.13 |
| G27C U28C G35C | 0.2 |
| C10U C13A G36U | 0.05 |
